Assay results as given in PubChem BioAssay AID686979 (National Center for Advancing Translational Sciences (NCATS), 2013).
Several values for one entry are separate records, joined by “and”; a condition that tells them apart may be missing. Equal values may be shown once. Out of some 420,000 compounds screened, about 50,000 (12%) were called active. This list was built around the results that the source calls inconclusive (neither active nor inactive); the mix of calls is not that of the screen. Calls come from the whole dose curve; as a rule, active = well fitted inhibition curve with a large enough effect; inconclusive = small, poorly fitted or top-dose-only effect; inactive = flat fitted curve, though single readings scatter. A potency beside an inconclusive call is a rough fit, not a confirmed value.
% is set by controls: 0 for no effect and ±100 for the full control effect; potency is the fitted concentration of half-maximal effect; tags give direction and shape of the fitted curve.

Assay: qHTS for Inhibitors of human tyrosyl-DNA phosphodiesterase 1 (TDP1): qHTS in cells in presence of CPT; note: nearly all actives have a fitted effect of over 55% in size
Details: chicken DT40 Tdp1-/-;hTDP1 cells + 20 nM CPT, ATP luminescence, 48 h; activity change, negative = growth inhibition: at 46.2 µM (top of the series) unless noted
Summary of the method: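 Cell growth measured by CellTiter-Glo luminescence after a minimum 48 h, 37 C compound exposure with 20 nM CPT in Tdp1-knockout DT40 cells stably expressing hTDP1, seeded 400/well; qHTS titration format.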
With `Cc1ccc(-c2[nH]ncc2C(=O)c2ccc(Br)cc2)c(O)c1` the Potency was inconclusive: 25.9 µM [inhibitor, single point].
In the case of `Cc1ccc(-c2nc(-c3cccnc3)sc2CC(=O)Nc2ccc(C)c(Cl)c2)cc1`, the Potency is reported as inconclusive: 29.1 µM [inhibitor, single point].
For `COc1ccc(N(CC(=O)NCc2ccccc2OC)S(=O)(=O)c2ccc(C)cc2)cc1Cl`, the Potency was inconclusive: 25.9 µM [inhibitor, single point].
With `CCN(CC)CCn1nc2c3c(cccc3c1=O)-c1ccccc1-2` the Potency was active: 0.517 µM.
With `Cc1ccc(C(=O)NN(C)c2nc3ccccc3nc2C(F)(F)F)cc1` the Potency was active: 4.61 µM.
In the case of `CN(C)c1ccc(/C=C/c2ccnc3cc(Cl)ccc23)cc1`, the Potency is reported as inconclusive: 12.6 µM [inhibitor, partial curve, poor fit].
With `CCc1ccc(NC(=O)CC2C(=O)N(c3ccc(Cl)cc3)C(=O)N2Cc2cccs2)cc1` (stereo not drawn) the Potency was active: 4.61 µM.
For `CC(=O)CC(=O)Nc1ncccn1`, the “activity change, negative = growth inhibition” value was inactive: 4.51%.
With `N#CCN1C(=O)NC2(CCCc3sccc32)C1=O` (stereo not drawn) the “activity change, negative = growth inhibition” value was inactive: 1.43%.
With `O=C(OCC(=O)N1CCC(Cc2ccccc2)CC1)c1cc(Cl)ccc1O` the “activity change, negative = growth inhibition” value was inactive: -1.86%.
For `COn1c(-c2ccc(Cl)cc2)nc2ccc(Cl)cc21`, the “activity change, negative = growth inhibition” value was inactive: -17.7%.
In the case of `CCCOc1ccc(C2c3c(oc4cc(C)c(C)cc4c3=O)C(=O)N2CCCN(C)C)cc1` (stereo not drawn), the Potency is reported as inconclusive: 3.26 µM [inhibitor, partial curve].
In the case of `CN(Cc1nc2ccccc2c(=O)[nH]1)C(=O)c1cc(C2CC2)nn1-c1ccccc1`, the Potency is reported as active: 13 µM.
With `O=C(COC(=O)/C=C/c1ccc(Br)o1)NC1CCCCC1` the “activity change, negative = growth inhibition” value was inactive: 0.939%.
With `NC(=O)c1ccc(NC(=O)CSc2nnc(-c3cccnc3)n2Cc2ccco2)cc1` the “activity change, negative = growth inhibition” value was inactive: 0.443%.
In the case of `COC(=O)c1ccc(COc2ccc(C#N)cc2)o1`, the “activity change, negative = growth inhibition” value is reported as inactive: -0.114%.
In the case of `C=CCN(c1ccccc1Cl)S(=O)(=O)c1cc(C(=O)N2CCCC2)ccc1Cl`, the Potency is reported as inconclusive: 16.4 µM [inhibitor, single point].
For `O=C(CSc1nc2ccccc2s1)N1N=C(c2cccs2)CC1c1ccc(F)cc1` (stereo not drawn), the Potency was inconclusive: 29.1 µM [inhibitor, single point].
For `CN(C)S(=O)(=O)c1ccc(/C(O)=C2/C(=O)C(=O)N(CCN3CCCCC3)C2c2cccnc2)cc1` (stereo not drawn), the Potency was inconclusive: 32.6 µM [inhibitor, single point].
For `CCCC(C(=O)NCC1CCCO1)N(Cc1ccco1)C(=O)CNS(=O)(=O)c1ccc(F)cc1` (stereo not drawn), the Potency was inconclusive: 29.1 µM [inhibitor, single point].
For `O=C(Nc1cccc(F)c1)c1ccc2c(c1)OCCO2`, the “activity change, negative = growth inhibition” value was inactive: -8.76%.
For `Cc1ccc(C(=O)N2CCC(C(=O)NC3CCCC3)CC2)cc1`, the “activity change, negative = growth inhibition” value was inactive: 7%.
With `Cc1noc2ncnc(SCc3ccc(C(F)(F)F)cc3)c12` the Potency was inconclusive: 13 µM [inhibitor, partial curve, poor fit].
In the case of `CC(C(=O)O)n1nc(-c2ccccc2)c2ccccc21` (stereo not drawn), the “activity change, negative = growth inhibition” value is reported as inactive: -1.25%.
With `CCN(Cc1ccccc1)C(c1cccc(C#N)c1)c1nnnn1C(C)(C)C` (stereo not drawn) the Potency was inconclusive: 16.4 µM [inhibitor, single point].
With `OC[C@H]1O[C@@H](n2cnc3c(=S)nc[nH]c32)[C@H](O)[C@@H]1O` the Potency was active: 11.9 µM.
With `COc1ccccc1N1CCN(CC(=O)Nc2ccnn2C2CCCC2)CC1` the Potency was inconclusive: 14.6 µM [inhibitor, partial curve].
With `CN(C)c1ccc(C(=O)c2ccc(O)cc2O)cc1` the Potency was inconclusive: 14.6 µM [inhibitor, partial curve].
With `c1ccc(CCn2c(C3CC3)nc3ccccc32)cc1` the Potency was inconclusive: 29.1 µM [inhibitor, single point].
In the case of `N#Cc1ccc(OCc2cccc(S(=O)(=O)N3CCOCC3)c2)cc1`, the Potency is reported as inconclusive: 16.4 µM [inhibitor, single point].
For `O=C(Nc1ccc(S(=O)(=O)N2CCCC2)cc1)c1cccnc1Cl`, the “activity change, negative = growth inhibition” value was inactive: 0.787%.
With `O=C(Nc1ccc(F)cc1F)NC1CCN(S(=O)(=O)c2ccc(F)cc2)CC1` the “activity change, negative = growth inhibition” value was inactive: -21.4%.
For `Cc1nn(C)c(C)c1CNC(=O)c1cnn2c1NC(c1ccccc1)CC2C(F)(F)F` (stereo not drawn), the Potency was inconclusive: 0.461 µM [inhibitor, full curve, poor fit].
For `COc1ccc(C#CC2=CC(=O)CC(C)(C)C2)cc1`, the Potency was inconclusive: 18.4 µM [inhibitor, single point].
With `COc1ccc(OCC(O)CNC(=O)c2sccc2Cl)cc1` (stereo not drawn) the “activity change, negative = growth inhibition” value was inactive: 1.87%.
For `CCOc1ccc(NS(=O)(=O)c2ccc3c(c2)CCN3C(C)=O)cc1`, the Potency was inconclusive: 2.59 µM [inhibitor, partial curve] and inconclusive: 1.64 µM [inhibitor, partial curve].
With `CC(C)c1ccc(CNc2ncccn2)cc1` the “activity change, negative = growth inhibition” value was inactive: -15.6%.
With `CC(/C=C/c1ccccc1F)=N\NC(=O)c1ccc(Cl)cc1` the Potency was active: 14.6 µM.
